Measurements from patent US20260241026A1, “THERAPEUTIC METHOD FOR LOW-DRUG-SENSITIVITY CANCERS BY ADMINISTRATION OF ANTI-MUC1 ANTIBODY-DRUG CONJUGATE” (priority 2023, published 2026).

Assays:
[1] = test system: human breast cancer cell line HCC70; experiment: Antitumor test in model with transplanted breast cancer cell line HCC70 (Example 3); type: in vivo, female nude mouse
Description: The mice were grouped 18 days after transplantation when their average tumor volume became about 165 mm^3. […] ABS buffer was administered to a Vehicle administration group. Six mice per group were used in all the groups.

[2] = test system: lung cancer PDX model (NIBIO-NS1); experiment: Antitumor test in lung cancer patient-derived xenograft model NIBIO-NS1; type: in vivo, female nude mice
From the text: NIBIO-NS1 was obtained as a lung cancer PDX model from the National Institute of Biomedical Innovation. A frozen tumor section of NIBIO-NS1 was thawed and subcutaneously transplanted to 5-week old female NSG mice (NOD. Cg-Prkdc Il2rg<tm1Wjl>/SzJ: purchased from Jackson Laboratory Japan, Inc.) using a trocar. Grown tumor was collected, cut into small pieces, and transplanted again to female nude mice (CAnN. Cg-Foxn1nu/CrlCrlj: purchased from Jackson Laboratory Japan, Inc.) using a trocar, followed by extended growth.
The female nude mice with transplanted NIBIO-NS1 were grouped 10 days after transplantation when their average tumor volume became about 157 mm^3. […] Six mice per group were used in groups 1 and 2, and 12 mice were used in group 3.

[3] = test system: human breast cancer cell line HCC70; experiment: Antitumor test in model with transplanted breast cancer cell line HCC70 (Example 5)
Description: A human breast cancer cell line HCC70 was purchased from ATCC and reconstituted using RPMI 1640 medium (manufactured by Thermo Fisher Scientific Inc.) containing 10% fetal bovine serum. Then, the cells were cultured in an incubator set to 37° C. and 5% CO2, and passaged at a frequency of once to twice a week. […] The suspension was subcutaneously transplanted at 100 μL to each 5-week-old female nude mouse (1×10^7 cells/100 μL/head). The mice were grouped 21 days after transplantation when the average tumor volume in the mice with the transplant became about 198 mm^3.
Six mice per group were used in groups 1, 2, and 3, and 12 mice was used in group 4. Body weights and tumor sizes were measured once to twice a week, and estimated tumor volumes were calculated. The comparison of drug efficacy between agents was analyzed by the parametric Dunnett's multiple comparison.
TA-MUC1-DXd ADC was sequentially administered at 10 mg/kg (Q3W×3) to one of the groups, and evaluation and observation were carried out up to Day 84.

[4] = test system: bladder cancer PDX model (NIBIO-K071); experiment: Antitumor test in bladder cancer patient-derived xenograft model NIBIO-K071; type: in vivo, female nude mice; conditions: for antitumor effect after sequential administration: observed about 3 weeks; for ETV (mm^3) Mean: Day 21, Q3W, intravenous
From the text: NIBIO-[…] was obtained as a bladder cancer patient-derived xenograft model (PDX model) from the National Institute of Biomedical Innovation. A frozen tumor section of NIBIO-[…] was thawed and subcutaneously transplanted to 4- to 6-week old female NSG mice (NOD. Cg-Prkdc Il2rg<tm1Wjl>/SzJ: purchased from Charles River Laboratories Japan, Inc.) using a trocar. Grown tumor was collected, cut into small pieces, and transplanted again to female NSG mice or female nude mice (CAnN. Cg-Foxn1nu/CrlCrlj: purchased from Charles River Laboratories Japan, Inc.) using a trocar, followed by extended growth. TA-MUC1-, Nectin-4-, and TROP2-positive findings were confirmed in the tumor of this model by immunohistochemical staining (IHC). An estimated tumor volume (ETV) was calculated as described below. Estimated tumor volume (volume,mm^3)=Major axis (mm)×Minor axis (mm)^2/2 The female nude mice with transplanted NIBIO-[…] were grouped 25 days after transplantation when their average tumor volume became about 200 mm^3. […] ABS buffer was administered to a Vehicle administration group. Six mice per group were used in all the groups. After initial administration, body weights and tumor sizes were measured twice a week, and estimated tumor volumes were calculated.

B1: TA-MUC1-DXd ADC: anti-TA-MUC1 antibody PM-N54Q (SEQ ID NO: 11, 12) conjugated to the exatecan-derivative drug-linker via a thioether bond; average 7 to 8 drugs per antibody (conjugate)
heavy: EVQLVESGGGLVQPGGSMRLSCVASGFPFSNYWMNWVRQAPGKGLEWVGEIRLKSNQYTTHYAESVKGRFTISRDDSKNSLYLQMNSLKTEDTAVYYCTRHYYFDYWGQGTLVTVSS[not shown - human IgG1 constant region]
light: DIVMTQSPLSNPVTPGEPASISCRSSKSLLHSNGITYFFWYLQKPGQSPQLLIYQMSNLASGVPDRFSGSGSGTDFTLRISRVEAEDVGVYYCAQNLELPPTFGQGTKVEIKRTVAAPSVFIFPPSDEQLKSGTASVVCLLNNFYPREAKVQWKVDNALQSGNSQESVTEQDSKDSTYSLSSTLTLSKADYEKHKVYACEVTHQGLSSPVTKSFNRGEC
modifications: exatecan-derivative drug-linker, DAR 7-8; Heavy chain of PM-N54Q; Light chain of PM-N54Q/PankoMab-GEX
notes: average 7 to 8 drugs per antibody
With B1 the “body weight on sequential administration” value ([1]; 10 mg/kg after TROP2-SN38 ADC, HCC70) was “No reduction in body weight”, the “antitumor effect after sequential administration” value ([1]; 10 mg/kg on Days 21 and 42 to the TROP2-SN38 ADC administration group, up to Day 65) was “strong regression effect” and the antitumor effect ([1]; Day 21, 10 mg/kg Q3W, HCC70) was “strong regression effect”. The “ETV (mm^3) Mean” value ([1]; Day 21, 10 mg/kg, Q3W, intravenous, HCC70) was 19 mm^3, the “body weight on sequential administration” value ([2]; 10 mg/kg after TROP2-DXd ADC, NIBIO-NS1) was “No reduction in body weight” and the “tumor course after regrouping of the TROP2-DXd ADC administration group” value ([2]; 10 mg/kg on Day 11 to tumors pre-treated with TROP2-DXd ADC, up to Day 31 (TA-MUC1-DXd ADC) or Day 21 (TROP2-DXd ADC)) was “strong tumor regression effect”. For the same molecule, the tumor regression effect ([2]; Day 11, 10 mg/kg on Day 0, NIBIO-NS1) was “strong regression effect”, the “ETV (mm^3) Mean” value ([2]; Day 11, 10 mg/kg, Day 0, intravenous, NIBIO-NS1) was 51 mm^3 and the “body weight on sequential administration” value ([3]; 10 mg/kg (Q3W×3) after HER2-DXd ADC, HCC70) was “No reduction in body weight”. For the same molecule, the “tumor course after regrouping of the HER2-DXd ADC administration group” value ([3]; 10 mg/kg from Day 21 to tumors pre-treated with HER2-DXd ADC, TA-MUC1-DXd ADC Q3W×3 up to Day 84, HER2-DXd ADC up to Day 42) was “strong tumor regression effect”, the “ETV (mm^3) Mean” value ([3]; Day 21, 10 mg/kg, intravenous, HCC70) was 43 mm^3 and the tumor regression effect ([3]; Day 21, 10 mg/kg, HCC70) was “strong regression effect”. For the same molecule, the “body weight on sequential administration” value ([4]; 10 mg/kg after Nectin-4-MMAE ADC or TROP2-SN38 ADC, NIBIO-K071) was “No reduction in body weight”, the “antitumor effect after sequential administration” value ([4]; 10 mg/kg on Day 21 to the Nectin-4-MMAE ADC administration group) was “strong regression effect” and the “antitumor effect after sequential administration” value ([4]; 10 mg/kg on Day 28 to the TROP2-SN38 ADC administration group) was “strong regression effect”. For the same molecule, the “ETV (mm^3) Mean” value ([4]; 3 mg/kg, NIBIO-K071) was 34 mm^3 and the “ETV (mm^3) Mean” value ([4]; 10 mg/kg, NIBIO-K071) was 6 mm^3.
